# The supplement of paper PMC12645437, “Orthogonal IMiD-Degron Pairs Induce Selective Protein Degradation in Cells” (ACS Chemical Biology, 2025)
# The list shows a part of the results.
# B1: Q9UKT9 (peptide)
# chain: FDCNQCGRYFTQKGNLLRHIKL
# B2: Q9UKT9 (peptide)
# chain: FICEICGRCFTQKGNLLRHIKL
# B3: Q9UKT9 (peptide)
# chain: FACSVCGHCFTQKGNLLRHIKL
# B4: Q9UKT9 (peptide)
# chain: FECSVCGHKFTQKGNLLRHIKL
# B5: Q9UKT9 (peptide)
# chain: FQCNQCGAHFTQKGNLLRHIKL
# B6: Q9UKT9 (peptide)
# chain: FMCDVCGAMFTQKGNLLRHIKL
# B7: Q9UKT9 (peptide)
# chain: FACPQCGAYFTQKGNLLRHIKL
# B8: Q9UKT9 (peptide)
# chain: FKCPVCGAQFTQKGNLLRHIKL
# B9: Q9UKT9 (peptide)
# chain: FVCEICGRAFTQKGNLLRHIKL
# B10: Q9UKT9 (peptide)
# chain: FTCPICGRYFTQKGNLLRHIKL
# B11: Q9UKT9 (peptide)
# chain: LRCNQCGFFCTQKGNLLRHIKL
# B12: Q9UKT9 (peptide)
# chain: FMCSVCGHWFTQKGNLLRHIKL
# B13: Q9UKT9 (peptide)
# chain: FVCDQCGAVFTQKGNLLRHIKL
# B14: Q9UKT9 (peptide)
# chain: LTCEICGFMCTQKGNLLRHIKL
# B15: Q9UKT9 (peptide)
# chain: FHCPICGHIFTQKGNLLRHIKL
# B16: Q9UKT9 (peptide)
# chain: FDCDQCGAAFTQKGNLLRHIKL
# B17: Q9UKT9 (peptide)
# chain: FECNQCGAYFTQKGNLLRHIKL
# B18: Q9UKT9 (peptide)
# chain: FYCNVCGAYFTQKGNLLRHIKL
# B19: Q9UKT9 (peptide)
# chain: FWCNICGACFTQKGNLLRHIKL
# B20: Q9UKT9 (peptide)
# chain: FCCNQCGHFFTQKGNLLRHIKL
# B21: Q9UKT9 (peptide)
# chain: FGCNQCGRMFTQKGNLLRHIKL
# B22: Q9UKT9 (peptide)
# chain: FACDICGATFTQKGNLLRHIKL
# B23: Q9UKT9 (peptide)
# chain: FRCPICGREFTQKGNLLRHIKL
# B24: Q9UKT9 (peptide)
# chain: FKCSVCGHLFTQKGNLLRHIKL
# B25: Q9UKT9 (peptide)
# chain: FKCNVCGAEFTQKGNLLRHIKL
# B26: Q9UKT9 (peptide)
# chain: FICNICGANFTQKGNLLRHIKL
# B27: Q9UKT9 (peptide)
# chain: FVCEQCGATFTQKGNLLRHIKL
# B28: Q9UKT9 (peptide)
# chain: FGCPICGHVFTQKGNLLRHIKL
# B29: Q9UKT9 (peptide)
# chain: FNCPICGRGFTQKGNLLRHIKL
# B30: Q9UKT9 (peptide)
# chain: FQCNQCGRSFTQKGNLLRHIKL
# B31: Q9UKT9 (peptide)
# chain: FACSVCGHRFTQKGNLLRHIKL
# B32: Q9UKT9 (peptide)
# chain: FKCDICGAYFTQKGNLLRHIKL
# Target: no compound (DMSO)
# Assay: log2 fold change of degron read counts, EGFP-low vs EGFP+ sorted cells; higher = lower degron-EGFP level without compound (poor expression or instability)
# Settings: compound: DMSO control; 18 h
# 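Further: jurkat cells carrying a lentiviral library of mutant zinc finger degrons fused to EGFP plus mCherry, mCherry+ cells FACS sorted, degron abundance counted by next-generation sequencing.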
row,Sequence,log2 fold change of degron read counts
1,B1,1.37
2,B2,-1.63
3,B3,-0.88
4,B4,-0.908
5,B5,-0.607
6,B6,-1.29
7,B7,-0.605
8,B8,-0.681
9,B9,-1.95
10,B10,0.0704
11,B11,1.87
12,B12,0.911
13,B13,-2.91
14,B14,-0.31
15,B15,0.525
16,B16,-1.58

row,Sequence,log2 fold change of degron read counts
1,B17,-0.574
2,B18,0.766
3,B19,0.785
4,B20,1.01
5,B21,0.727
6,B22,-2.1
7,B23,-1.03
8,B24,-0.842
9,B25,-1.93
10,B26,-0.744
11,B27,-2.18
12,B28,0.0242
13,B29,-0.272
14,B30,-0.415
15,B31,-0.218
16,B32,-1.05
